Assay results from PubChem BioAssay AID588855 (National Center for Advancing Translational Sciences (NCATS), 2011).
The campaign covered roughly 410,000 compounds. About 5,000 (1.2%) were called active. Inconclusive results, whose numbers are uncertain, are shown with a selection of clear calls. Calls follow the shape of the dose curve; as a rule, active = well fitted inhibition curve with a large enough effect; inconclusive = small, poorly fitted or top-dose-only effect; inactive = no such curve, though single readings can be large or run the other way. Where the call is inconclusive, the potency comes from a doubtful curve fit.

test: qHTS for Inhibitors of TGF-b; conditions: HepG2 CAGA-GFP TGF-b/SMAD3 reporter, GFP fluorescence, 18 h, TGF-beta stimulated, 500 pg/mL final; series mostly up to 46.1 µM; also: nearly all actives have a fitted effect of over 65% in size
Method in brief: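 TGF-beta reporter screen: HEPG2 CAGA-GFP, 1% FBS, 500 pg/mL TGF-beta final, 18 h; per-cell GFP summed per well; curves fitted and categorized by class.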
Potency is read from the fitted curve at half-maximal effect; tags tell the direction and shape of the fitted curve.

Row | SMILES | Potency
1 | Cc1cc(SCC(=O)NN)c2cc(Br)ccc2n1 | inconclusive: 35.5 µM [inhibitor, single point]
2 | Fc1ccccc1/C=N/n1c(C2CCCCC2)n[nH]c1=S | inconclusive: 11.2 µM [inhibitor, partial curve, poor fit]
3 | COc1ccc(NC(=O)c2ccc3ccccc3c2)cc1NS(=O)(=O)c1ccc(F)cc1 | inactive
4 | O=C(NCC1CC1)C1(C(F)(F)F)C/C(=C\Cc2ccccc2)CCCO1 (stereo not drawn) | inconclusive: 22.4 µM [inhibitor, single point]
5 | Cc1ccc([C@@H]2CC=C(C(=O)O)[C@H](c3ccc(Cl)cc3)N2S(=O)(=O)c2ccc(C)cc2)cc1 | inconclusive: 12.6 µM [inhibitor, partial curve, poor fit]
6 | COc1ccc(OCc2nc3ccccc3n2C(C)c2ccccc2)cc1 (stereo not drawn) | inconclusive: 35.5 µM [inhibitor, single point]
7 | COc1ccc2c(-c3ccc(OCCN4CCCCC4)cc3)c(-c3ccccc3OC)sc2c1 | inconclusive: 35.5 µM [inhibitor, single point]
8 | CCOc1ccccc1NC(=O)CSc1nc2c(c(=O)[nH]1)CCC2 | inactive
9 | COc1ccc(NC(=O)c2cc3n(n2)C(C(F)(F)F)CC(c2ccco2)N3)cc1 (stereo not drawn) | inactive
10 | COc1ccc(OC)c(CNC(=O)CCNC(=O)Cn2ccc3ccccc3c2=O)c1 | inconclusive: 14.1 µM [inhibitor, partial curve]
11 | O=C(Nc1cc(S(=O)(=O)N2CCOCC2)ccc1N1CCCCC1)c1ccccc1 | inactive
12 | O=C(NCc1ccc(Cl)cc1)c1ccc(CSCc2cccc(Cl)c2)o1 | inconclusive: 22.4 µM [inhibitor, single point]
13 | Cc1ccc(OCCCC(=O)Nc2cc(S(=O)(=O)N3CCOCC3)ccc2N2CCOCC2)cc1 | inactive
14 | CC(C)(C)c1ccc(C2Sc3ccccc3NC3=C2C(=O)c2ccccc23)cc1 (stereo not drawn) | inconclusive: 11.2 µM [inhibitor, partial curve, poor fit]
15 | O=C(O)c1ccc(/C=N/NC(=O)c2cc(-c3cccs3)nc3ccccc23)cc1 | inconclusive: 6.31 µM [inhibitor, single point]
16 | Cc1cc(OCC(=O)Nc2ccc(S(=O)(=O)N3CCN(C)CC3)cc2)cc(C)c1Cl | inconclusive: 20 µM [inhibitor, single point]
17 | CCOc1ccc(N(CC(=O)Nc2cccc(N(C)S(C)(=O)=O)c2)S(=O)(=O)c2ccccc2)cc1 | inconclusive: 12.6 µM [inhibitor, single point]
18 | CC1CCCC(NC(=O)NC(=O)COC(=O)c2ccc(O)cc2O)C1C (stereo not drawn) | inconclusive: 35.5 µM [inhibitor, single point]
19 | CCN(CC)C(=O)C1=C(C)N(Cc2ccc(F)cc2)C(=O)C(CC(=O)NCCCN(C)C)C1 (stereo not drawn) | inactive
20 | COc1ccc(CNC(=O)COc2ccc(S(=O)(=O)N3CCCCC3)cc2Cl)cc1 | inconclusive: 35.5 µM [inhibitor, single point]
21 | CN(c1ccccc1)S(=O)(=O)c1ccc(Cl)c(C(=O)Nc2nc3ccccc3[nH]2)c1 | inactive
22 | CCn1c(=N)n(CCO)c2ccccc21 | inconclusive: 35.5 µM [inhibitor, partial curve, poor fit]

Row | SMILES | Potency
23 | Cc1cc(C)cc(OCCn2c(C3CC(=O)N(c4ccccc4Cl)C3)nc3ccccc32)c1 (stereo not drawn) | inconclusive: 11.2 µM [inhibitor, partial curve, poor fit]
24 | CCOC(=O)c1sc(N=NC2=C(O)CCCC2=O)c(C(=O)OCC)c1C | inconclusive: 35.5 µM [inhibitor, single point]
25 | CC(=O)NC(c1ccc(Cl)cc1)c1ccc2cccnc2c1O (stereo not drawn) | inconclusive: 2.51 µM [inhibitor, full curve, poor fit]
26 | CCOc1ccccc1NC(=O)Cn1c(=O)n(CCC(C)C)c(=O)c2cccnc21 | inactive
27 | O=C(COC(=O)c1cc(-c2cccs2)nc2ccccc12)c1ccc(Br)cc1 | inactive
28 | CC1=C(C)C(C)=C(C#N)C(=C(C#N)C#N)N1 | inactive
29 | CC(=O)N1c2ccc(S(=O)(=O)NCCc3ccccc3)cc2CC1C (stereo not drawn) | inconclusive: 22.4 µM [inhibitor, partial curve, poor fit]
30 | O=C(N/N=C/C(Cl)=C/c1ccccc1)c1ccco1 | inconclusive: 0.708 µM [inhibitor, partial curve, poor fit]
31 | O=c1[nH]c(CN2CCN(Cc3ccccc3)CC2)nc2scc(-c3ccccc3)c12 | inactive
32 | CCc1nn(C(C)C(=O)NCCN2CCN(c3cccc(C)c3C)CC2)c(=O)c2cc3occc3n12 (stereo not drawn) | inconclusive: 25.1 µM [inhibitor, single point]
33 | CSC1=C(C#N)C(CC(C)C)C(C(C)=O)=C(C)N1 (stereo not drawn) | inactive
34 | CCOc1ccccc1OCCCC(=O)Nc1sccc1C(N)=O | inconclusive: 0.112 µM [inhibitor, full curve, poor fit]
35 | COc1ccc(CCC2CCNCC2)cc1 | inactive
36 | COc1cccc(/C=C/C(=O)c2cccc([N+](=O)[O-])c2)c1OC | inconclusive: 15.8 µM [inhibitor, single point]
37 | Cc1csc(NC(=O)CSc2nnc3c4ccccc4nc(C(C)(C)C)n23)n1 | inconclusive: 7.08 µM [inhibitor, partial curve, poor fit]
38 | CC(CNS(=O)(=O)c1ccc(Cl)cc1)n1cncn1 (stereo not drawn) | inactive
39 | CCOc1ccc(-n2c(SCc3nc(-c4ccc(OC)cc4)no3)nnc2-c2ccncc2)cc1 | inconclusive: 17.8 µM [inhibitor, single point]
40 | CCOc1cccc2cc(-c3nc4sc5c(c4c(=O)[nH]3)CCC(C(C)(C)C)C5)c(=O)oc12 (stereo not drawn) | inactive
41 | CCCCCCn1c(COc2ccccc2F)nnc1SCC(=O)N1c2ccccc2NC(=O)C1(C)C | inconclusive: 12.6 µM [inhibitor, partial curve, poor fit]
42 | O=C(COC(=O)CCc1nc2ccccc2c(=O)[nH]1)Nc1ccccc1Cl | inconclusive: 35.5 µM [inhibitor, single point]
43 | c1ccc(-c2ccc(-c3cnc4n3CCCCC4)cc2)cc1 | inconclusive: 17.8 µM [inhibitor, single point]
